# According to PubChem BioAssay (NCI):
#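 Five concentrations, 48 hours, 96-well plates. GI50 marks 50% less growth. TGI is the concentration that stops growth completely.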
# System: NCI-H322M lung
# Experiment: growth of human tumour cells (NCI), 48 h
SMILES,TGI [µM],GI50 [µM]
CCc1cccc(CC)c1Nc1nc2c(s1)C(=O)c1ccccc1C2=O,32.5,
C[C@H](C(=O)N[C@@H](Cc1ccc(-c2ccccc2)cc1)C(=O)NC1CC(C)(C)N(C)C(C)(C)C1)c1ccc(-c2ccccc2)c(F)c1,2.99,1.48
N=C(N)c1ccc(-c2ccc(-c3cncc4ccccc34)s2)cc1F,3.22,1.74
COc1cc(/C=C2\CCCC3C2=Nc2ccccc2NC3c2cc(OC)c(OC)c(OC)c2)cc(OC)c1OC (stereo unspecified),> 100,5.58
CN/C=C(/c1ccc(OC)cc1)C(O)c1ccc(OC)c(OC)c1 (stereo unspecified),> 100,
O=[N+]([O-])c1ccc(/C=N\Nc2ccc([N+](=O)[O-])cn2)cc1,> 100,
CCOC(=O)C1(Br)C(c2ccccc2)NC(=O)N(C2OC(COC(=O)c3ccccc3)C(OC(=O)c3ccccc3)C2OC(=O)c2ccccc2)C1(C)Br (stereo unspecified),> 100,
CCC(C(=O)c1cccs1)C(O)(C(F)(F)F)C(F)(F)F (stereo unspecified),> 100,
Clc1ccccc1C1N2CCCCC2[C@@H]2c3[nH]c4ccccc4c3CCN12 (stereo partly specified),39.6,
CC(=O)c1cccc(Nc2c3ccccc3nc3occc23)c1,> 100,
N#Cc1c(N)c2c(c(-c3ccccc3)c1-c1ccccc1)C(=O)N(Nc1ccccc1)C2=O,58,
Cc1cc(C(=O)N[C@@H](CCC(=O)O)C(=O)O)sc1CC[C@@H]1CNc2nc(N)[nH]c(=O)c2C1,> 100,0.0592
CCN1/C(=C/C=C/C=C/c2sc3ccccc3[n+]2CC)Sc2ccccc21,3.43,0.445
CC(C)c1cccc(C(C)C)c1NC(=O)C(=O)CC(=O)CC(c1ccccc1)c1c(O)c2ccccc2oc1=O (stereo unspecified),> 100,
O=[N+]([O-])c1cc2c(cc1O)[nH]c1cccc([N+](=O)[O-])c12,> 100,
O=C(N[C@@H]1C=CCC[C@@H]1c1ccccc1)OCc1ccccc1,71,
COc1cc(/C=C/C(=O)NC[C@]2(O)CCC3C4CCc5cc(O)ccc5C4CCC32C)ccc1O (stereo partly specified),> 100,16.2
CCc1nc(-n2c(CC)nc3ccccc3c2=O)nc(N)c1-c1ccc(Cl)cc1,> 100,> 44.9
C=CCOc1ccc(C2(c3ccc(OCC=C)cc3)C(=O)Nc3ccccc32)cc1,> 10,
COc1cc2cn3c4ccc(O)cc4nc(N)c3c2cc1OC,15.5,1.88
COc1cccc(CCn2c(N)c(C(=O)O)c3ccc([N+](=O)[O-])cc3c2=O)c1,> 100,
c1ccc(CN2CCCN3CCN(CCCN(Cc4ccccc4)CC3)CC2)cc1,> 100,
CC1C(/C=C/c2ccoc2)ON2CCCC12 (stereo unspecified),> 100,

SMILES,TGI [µM],GI50 [µM]
CC(C)C(C/C=C1/CC(CO)(COC(=O)C(C)(C)C)OC1=O)C(C)C (stereo unspecified),25.9,
O=C(Nc1ccc(Cl)cc1F)c1cc(F)ccc1O,9.6,0.751
FC(F)(F)c1[nH]ncc1-c1nc2c(N3CCCCC3)cc3[nH]ncc3c2c2c1CCCC2,3.53,0.86
Cc1ccc(P(c2ccc(C)cc2)c2ccc(C)cc2)cc1,> 100,
CC(N)(Cc1c[nH]c2ccccc12)C(=O)O (stereo unspecified),> 2500,> 2500
CCN(CC)CCOc1ccc(N2Cc3ccccc3C2=O)cc1,> 10,
O=C(CCc1ccco1)NC1CCN(CC2(c3ccc(Cl)cc3)CCC2)CC1,39.6,17.6
CCN=C=NCCCN(C)C,> 100,
COC(=O)C1=C([C@H]2COC(C)(C)O2)[C@H]2C[C@@H]1[C@@H]1OC(C)(C)O[C@@H]12,> 100,
O=C(O)CC(C(=O)O)C1c2ccccc2-c2ccccc21 (stereo unspecified),> 100,
CCOC(=O)/C(=C/c1ccccc1)C(=O)c1ccccc1,27.7,12
C=CC(=O)NCCOc1cccc(Nc2cc(NCCCNC(=O)C3CCC3)c(Br)cn2)c1,12.3,1.7
CCOC(=O)C12CCSC1C1(C#N)C(C#N)=CC2(N=P(c2ccccc2)(c2ccccc2)c2ccccc2)n2c(=O)n(-c3ccccc3)c(=O)n21 (stereo unspecified),> 100,
CC1(C(=O)NCCN(CCNC(=O)C2(C)CC3(C)CC(C)(C2)C(=O)NC3=O)CCNC(=O)C2(C)CC3(C)CC(C)(C2)C(=O)NC3=O)CC2(C)CC(C)(C1)C(=O)NC2=O (stereo unspecified),> 100,
O=C1CCc2nc3ncccc3cc2C1,> 100,
C/C(=N/NC(=S)N(C)CCc1ccccn1)c1cnccn1,15.5,
O=Nc1ccc(O)c2ncccc12,36.8,
COc1ccc([C@@H]2CC(=O)NCCCNCCCCNCCCN2)cc1,> 100,
CN(C)Cc1cc(C(=O)/C=C/c2ccc(Br)cc2)cc(CN(C)C)c1O,23.8,
COc1ccc2[nH]c3c([N+](=O)[O-])ccc(Cl)c3c(=O)c2c1,99.8,
Cc1ccc(/C=N/NS(=O)(=O)c2ccccc2)cc1,> 100,
O=C1NC(=O)[C@@H](OCC2CCCCC2)[C@@H]2OCC3OC(C(O)C3O)C12 (stereo partly specified),> 100,
Cc1ccc(Nc2[nH]c(C(=O)c3ccc(Cl)cc3)c(N)c2C(=S)Nc2ccccc2)nc1,80.5,16.3
